{"source": "the supplement of paper PMC5499739", "note": "Over roughly 16,000 sequences, “Z-score” has its median near -0.37; the highest 2% begin near 3.1. Some of the results follow."}
{"test_system": "RBM10 RRM1-ZnF-RRM2 (GST-tagged construct)", "assay": "RNAcompete 7-mer binding Z-score; higher = stronger binding preference", "protocol": "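RNAcompete: 20 pmol GST-tagged RBM10 RNA-binding constructs were incubated with a designed RNA pool of about 241,000 sequences up to 41 nt (1.5 nmol) on glutathione beads for 30 min at 4 °C and washed. Bound RNAs were identified by microarray hybridisation. Each RNA 7-mer is scored by a one-sided Z-score of its enrichment, computed over probes that contain the 7-mer within longer pool sequences.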"}
{"sequence": "GGGCUGA", "RNAcompete 7-mer binding Z-score": 1.02}
{"sequence": "CGUGCGG", "RNAcompete 7-mer binding Z-score": 1.24}
{"sequence": "ACAAUCU", "RNAcompete 7-mer binding Z-score": -0.795}
{"sequence": "UUAUUAG", "RNAcompete 7-mer binding Z-score": -0.286}
{"sequence": "CUGGCUA", "RNAcompete 7-mer binding Z-score": -0.486}
{"sequence": "UCUAUGU", "RNAcompete 7-mer binding Z-score": -0.61}
{"sequence": "ACUAAGA", "RNAcompete 7-mer binding Z-score": -0.322}
{"sequence": "CCCAACC", "RNAcompete 7-mer binding Z-score": -0.795}
{"sequence": "AGGGGGC", "RNAcompete 7-mer binding Z-score": 1.4}
{"sequence": "AUCUAUU", "RNAcompete 7-mer binding Z-score": -0.653}
{"sequence": "UAUUGCA", "RNAcompete 7-mer binding Z-score": -0.475}
{"sequence": "CCGAGUC", "RNAcompete 7-mer binding Z-score": -0.817}
{"sequence": "AGCGUCG", "RNAcompete 7-mer binding Z-score": 0.0495}
{"sequence": "CCUACGC", "RNAcompete 7-mer binding Z-score": -0.755}
{"sequence": "CAUAAUG", "RNAcompete 7-mer binding Z-score": -0.384}
{"sequence": "CCUAGUC", "RNAcompete 7-mer binding Z-score": -0.846}
{"sequence": "AACCAUU", "RNAcompete 7-mer binding Z-score": -0.632}
{"sequence": "CGCAAUA", "RNAcompete 7-mer binding Z-score": -0.46}
{"sequence": "UCGUACA", "RNAcompete 7-mer binding Z-score": -0.369}
{"sequence": "GGACCGU", "RNAcompete 7-mer binding Z-score": 0.0532}
{"sequence": "ACGAUUC", "RNAcompete 7-mer binding Z-score": -0.551}
{"sequence": "AGAGAUU", "RNAcompete 7-mer binding Z-score": -0.103}
{"sequence": "GACGCCG", "RNAcompete 7-mer binding Z-score": -0.646}
{"sequence": "GCAGUAA", "RNAcompete 7-mer binding Z-score": 0.538}
{"sequence": "UGAACCA", "RNAcompete 7-mer binding Z-score": -0.384}
{"sequence": "GGAAGCU", "RNAcompete 7-mer binding Z-score": 0.683}
{"sequence": "GAGUGCG", "RNAcompete 7-mer binding Z-score": 1.3}
{"sequence": "AGUGGCU", "RNAcompete 7-mer binding Z-score": 0.534}
{"sequence": "UUCGUUU", "RNAcompete 7-mer binding Z-score": -0.409}
{"sequence": "AAAUCAC", "RNAcompete 7-mer binding Z-score": -0.522}
{"sequence": "CCAAGUU", "RNAcompete 7-mer binding Z-score": -0.715}
{"sequence": "AUAUUAC", "RNAcompete 7-mer binding Z-score": -0.541}
{"sequence": "UAAUGAU", "RNAcompete 7-mer binding Z-score": -0.417}
{"sequence": "CUGACAA", "RNAcompete 7-mer binding Z-score": -0.533}
{"sequence": "CACGCCA", "RNAcompete 7-mer binding Z-score": -0.734}
{"sequence": "GCAUCUU", "RNAcompete 7-mer binding Z-score": -0.763}
{"sequence": "ACGGGUA", "RNAcompete 7-mer binding Z-score": 2.22}
{"sequence": "CUUUCCU", "RNAcompete 7-mer binding Z-score": -0.912}
{"sequence": "GCCAGAC", "RNAcompete 7-mer binding Z-score": -0.493}
{"sequence": "UCCGUCG", "RNAcompete 7-mer binding Z-score": -0.511}
{"sequence": "GCGCAUA", "RNAcompete 7-mer binding Z-score": -0.154}
{"sequence": "GUAUCAU", "RNAcompete 7-mer binding Z-score": -0.286}
{"sequence": "UGGUAUU", "RNAcompete 7-mer binding Z-score": -0.0197}
{"sequence": "GUCUCCU", "RNAcompete 7-mer binding Z-score": -0.694}
{"sequence": "CGAAGAC", "RNAcompete 7-mer binding Z-score": -0.431}
{"sequence": "CAGCUGU", "RNAcompete 7-mer binding Z-score": -0.624}
{"sequence": "CAUUUCA", "RNAcompete 7-mer binding Z-score": -0.846}
{"sequence": "UUACGGU", "RNAcompete 7-mer binding Z-score": -0.144}
{"sequence": "UCGAUCA", "RNAcompete 7-mer binding Z-score": -0.515}
{"sequence": "CGCGAUG", "RNAcompete 7-mer binding Z-score": -0.0306}
{"sequence": "ACCAGAU", "RNAcompete 7-mer binding Z-score": -0.606}
{"sequence": "UCGUCUG", "RNAcompete 7-mer binding Z-score": -0.635}
{"sequence": "UUCAGAC", "RNAcompete 7-mer binding Z-score": -0.664}
{"sequence": "AUCCGUG", "RNAcompete 7-mer binding Z-score": -0.723}
{"sequence": "GAGGGUU", "RNAcompete 7-mer binding Z-score": 2.88}
{"sequence": "CGCUGAG", "RNAcompete 7-mer binding Z-score": -0.118}
{"sequence": "GAGUCCG", "RNAcompete 7-mer binding Z-score": -0.253}
{"sequence": "UCCUGUC", "RNAcompete 7-mer binding Z-score": -0.934}
{"sequence": "AGUCCCA", "RNAcompete 7-mer binding Z-score": -0.712}
{"sequence": "CGUAACA", "RNAcompete 7-mer binding Z-score": -0.3}
{"sequence": "CCAGAUA", "RNAcompete 7-mer binding Z-score": -0.643}
{"sequence": "CUUUCGG", "RNAcompete 7-mer binding Z-score": -0.679}
{"sequence": "UAUAGAU", "RNAcompete 7-mer binding Z-score": -0.187}
{"sequence": "UAUAUAC", "RNAcompete 7-mer binding Z-score": -0.471}
{"sequence": "AUGUUCA", "RNAcompete 7-mer binding Z-score": -0.752}
{"sequence": "CGACACC", "RNAcompete 7-mer binding Z-score": -0.635}
{"sequence": "AAGCAAA", "RNAcompete 7-mer binding Z-score": -0.0634}
{"sequence": "GUCUGUU", "RNAcompete 7-mer binding Z-score": -0.548}
{"sequence": "UCCUUGA", "RNAcompete 7-mer binding Z-score": -0.857}
{"sequence": "GACGUAG", "RNAcompete 7-mer binding Z-score": 0.691}
{"sequence": "AAUCAGA", "RNAcompete 7-mer binding Z-score": 0.243}
{"sequence": "UCAAUUA", "RNAcompete 7-mer binding Z-score": -0.664}
{"sequence": "GGAGUAU", "RNAcompete 7-mer binding Z-score": 1.4}
{"sequence": "CGCCGCG", "RNAcompete 7-mer binding Z-score": -0.453}
{"sequence": "UUCGUCC", "RNAcompete 7-mer binding Z-score": -0.806}
{"sequence": "GUUAGUA", "RNAcompete 7-mer binding Z-score": 0.41}
{"sequence": "GCUUGAU", "RNAcompete 7-mer binding Z-score": -0.65}
{"sequence": "AGUGUCA", "RNAcompete 7-mer binding Z-score": -0.329}
{"sequence": "UCCUCAC", "RNAcompete 7-mer binding Z-score": -0.814}
{"sequence": "GUGUGAU", "RNAcompete 7-mer binding Z-score": 0.279}
{"sequence": "GUAAGAC", "RNAcompete 7-mer binding Z-score": 0.319}
{"sequence": "UACGGAC", "RNAcompete 7-mer binding Z-score": 0.428}
{"sequence": "ACCAGAC", "RNAcompete 7-mer binding Z-score": -0.606}
{"sequence": "CUCCGGA", "RNAcompete 7-mer binding Z-score": -0.479}
{"sequence": "UUGCGCU", "RNAcompete 7-mer binding Z-score": -0.69}
{"sequence": "ACCCCCA", "RNAcompete 7-mer binding Z-score": -0.409}
{"sequence": "UACGGUC", "RNAcompete 7-mer binding Z-score": -0.446}
{"sequence": "CAUGAAG", "RNAcompete 7-mer binding Z-score": 0.0313}
{"sequence": "GACCUAG", "RNAcompete 7-mer binding Z-score": -0.508}
{"sequence": "CUGACAG", "RNAcompete 7-mer binding Z-score": -0.333}
{"sequence": "UAACUUC", "RNAcompete 7-mer binding Z-score": -0.65}
{"sequence": "GGGGUGA", "RNAcompete 7-mer binding Z-score": 3.52}
